Test results as given in patent US5204328A, “Peptides having atrial natriuretic factor activity” (Merck & Co., Inc., priority 1991, dated 1993).
At least one peptide structure holds a part that was inferred or is arguable (an end, a ring closure or a residue). Where a SMILES comes first, the peptide text is derived from it. Bridges are numbered along the chain shown (N, C = ends). [ ]: non-standard residue; d: D form.

Tested on: Rabbit Renal Artery
Test: Vasorelaxant relative potency, rabbit renal artery
Format: cell-based
Settings: Table 1; (3-28) analogs, relative to sequence I = 1

| SMILES | Vasorelaxant Relative Potency Rabbit Renal Artery |
| --- | --- |
| CC[C@H](C)[C@@H]1NC(=O)[C@H](CCCNC(=N)N)NC(=O)[C@H](CC(=O)O)NC(=O)[C@H]([C@@H](C)CC)NC(=O)[C@H](CCCNC(=N)N)NC(=O)CNC(=O)CNC(=O)[C@H](Cc2ccccc2)N(C)C(=O)[C@@H](NC(=O)[C@H](CO)NC(=O)[C@H](CO)NC(=O)[C@H](CCCNC(=N)N)NC(=O)[C@@H](N)CCCNC(=N)N)CSSC[C@@H](C(=O)N[C@@H](CC(N)=O)C(=O)N[C@@H](CO)C(=O)N[C@@H](Cc2ccccc2)C(=O)N[C@@H](CCCNC(=N)N)C(=O)N[C@@H](Cc2ccc(O)cc2)C(=O)O)NC(=O)CNC(=O)[C@H](CC(C)C)NC(=O)CNC(=O)[C@H](CO)NC(=O)[C@H](CCC(N)=O)NC(=O)[C@H](C)NC(=O)CNC1=O [Structure 7] | 0.13 |
| CC[C@H](C)[C@@H]1NC(=O)[C@H](CCCNC(=N)N)NC(=O)[C@H](CC(=O)O)NC(=O)[C@H]([C@@H](C)CC)NC(=O)[C@H](CCCNC(=N)N)NC(=O)CNC(=O)CNC(=O)[C@H](Cc2ccccc2)NC(=O)[C@@H](NC(=O)[C@H](CO)NC(=O)[C@H](CO)NC(=O)[C@H](CCCNC(=N)N)NC(=O)[C@@H](N)CCCNC(=N)N)CSSC[C@@H](C(=O)N[C@@H](CC(N)=O)C(=O)N[C@@H](CO)C(=O)N[C@@H](Cc2ccccc2)C(=O)N[C@@H](CCCNC(=N)N)C(=O)N[C@@H](Cc2ccc(O)cc2)C(=O)O)NC(=O)CNC(=O)[C@H](CC(C)C)NC(=O)CNC(=O)[C@H](CO)NC(=O)[C@H](CCC(N)=O)NC(=O)[C@H](C)N(C)C(=O)CNC1=O [Structure 15] | 0.81 |
| CC[C@H](C)[C@@H]1NC(=O)[C@H](CCCNC(=N)N)NC(=O)[C@H](CC(=O)O)NC(=O)[C@H]([C@@H](C)CC)NC(=O)[C@H](CCCNC(=N)N)NC(=O)CNC(=O)CNC(=O)[C@H](Cc2ccccc2)NC(=O)[C@@H](NC(=O)[C@H](CO)NC(=O)[C@H](CO)NC(=O)[C@H](CCCNC(=N)N)NC(=O)[C@@H](N)CCCNC(=N)N)CSSC[C@@H](C(=O)N[C@@H](CC(N)=O)C(=O)N[C@@H](CO)C(=O)N[C@@H](Cc2ccccc2)C(=O)N[C@@H](CCCNC(=N)N)C(=O)N[C@@H](Cc2ccc(O)cc2)C(=O)O)NC(=O)CNC(=O)[C@H](CC(C)C)NC(=O)CNC(=O)[C@H](CO)NC(=O)[C@@H]2CCCN2C(=O)[C@H](C)NC(=O)CNC1=O [Structure 16] (H-RRSSCFGGRIDRIGAPSGLGCNSFRY-OH; disulfide 5-21) | 0.25 |
| CC[C@H](C)[C@@H]1NC(=O)[C@H](CCCNC(=N)N)NC(=O)[C@H](CC(=O)O)NC(=O)[C@H]([C@@H](C)CC)NC(=O)[C@H](CCCNC(=N)N)NC(=O)CNC(=O)CNC(=O)[C@H](Cc2ccccc2)NC(=O)[C@@H](NC(=O)[C@H](CO)NC(=O)[C@H](CO)NC(=O)[C@H](CCCNC(=N)N)NC(=O)[C@@H](N)CCCNC(=N)N)CSSC[C@@H](C(=O)N[C@@H](CC(N)=O)C(=O)N[C@@H](CO)C(=O)N[C@@H](Cc2ccccc2)C(=O)N[C@@H](CCCNC(=N)N)C(=O)N[C@@H](Cc2ccc(O)cc2)C(=O)O)NC(=O)CNC(=O)[C@H](CC(C)C)NC(=O)[C@@H]2CCCN2C(=O)[C@H](CO)NC(=O)[C@H](CCC(N)=O)NC(=O)[C@H](C)NC(=O)CNC1=O [Structure 17] (H-RRSSCFGGRIDRIGAQSPLGCNSFRY-OH; disulfide 5-21) | 1.5 |
| CC[C@H](C)[C@@H]1NC(=O)[C@H](CCCNC(=N)N)NC(=O)[C@H](CC(=O)O)NC(=O)[C@H]([C@@H](C)CC)NC(=O)[C@H](CCCNC(=N)N)NC(=O)CNC(=O)CNC(=O)[C@H](Cc2ccccc2)NC(=O)[C@@H](NC(=O)[C@H](CO)NC(=O)[C@H](CO)NC(=O)[C@H](CCCNC(=N)N)NC(=O)[C@@H](N)CCCNC(=N)N)CSSC[C@@H](C(=O)N[C@@H](CC(N)=O)C(=O)N[C@@H](CO)C(=O)N[C@@H](Cc2ccccc2)C(=O)N[C@@H](CCCNC(=N)N)C(=O)N[C@@H](Cc2ccc(O)cc2)C(=O)O)NC(=O)CNC(=O)[C@@H]2CCCN2C(=O)CNC(=O)[C@H](CO)NC(=O)[C@H](CCC(N)=O)NC(=O)[C@H](C)NC(=O)CNC1=O [Structure 18] (H-RRSSCFGGRIDRIGAQSGPGCNSFRY-OH; disulfide 5-21) | 0.028 |
| CC[C@H](C)[C@@H]1NC(=O)[C@H](CCCNC(=N)N)NC(=O)[C@H](CC(=O)O)NC(=O)[C@H]([C@@H](C)CC)NC(=O)[C@H](CCCNC(=N)N)NC(=O)CNC(=O)CNC(=O)[C@H](Cc2ccccc2)NC(=O)[C@@H](NC(=O)[C@H](CO)NC(=O)[C@H](CO)NC(=O)[C@H](CCCNC(=N)N)NC(=O)[C@@H](N)CCCNC(=N)N)CSSC[C@@H](C(=O)N[C@@H](CC(N)=O)C(=O)N[C@@H](CO)C(=O)N[C@@H](Cc2ccccc2)C(=O)N[C@@H](CCCNC(=N)N)C(=O)N[C@@H](Cc2ccc(O)cc2)C(=O)O)NC(=O)[C@H]2CCCN2C(=O)[C@H](CC(C)C)NC(=O)CNC(=O)[C@H](CO)NC(=O)[C@H](CCC(N)=O)NC(=O)[C@H](C)NC(=O)CNC1=O [Structure 20] (H-RRSSCFGGRIDRIGAQSGL[dP]CNSFRY-OH; disulfide 5-21) | 0.3 |

Same assay, conditions: Table 2; (7-27)-NH2 analogs, relative to I (7-27)-NH2 = 1

| SMILES | Vasorelaxant Relative Potency Rabbit Renal Artery |
| --- | --- |
| CC[C@H](C)[C@@H]1NC(=O)[C@H](CCCNC(=N)N)NC(=O)[C@H](CC(=O)O)NC(=O)[C@H]([C@@H](C)CC)NC(=O)[C@H](CCCNC(=N)N)NC(=O)CNC(=O)CNC(=O)[C@H](Cc2ccccc2)NC(=O)[C@@H](N)CSSC[C@@H](C(=O)N[C@@H](CC(N)=O)C(=O)N[C@@H](CO)C(=O)N[C@@H](Cc2ccccc2)C(=O)N[C@@H](CCCNC(=N)N)C(N)=O)NC(=O)CNC(=O)[C@H](CC(C)C)NC(=O)CNC(=O)[C@H](CO)NC(=O)[C@H](CCC(N)=O)NC(=O)[C@H](C)NC(=O)CNC1=O [I Flynn et al. (7-27)-NH2, reference compound] (H-CFGGRIDRIGAQSGLGCNSFR-NH2; disulfide 1-17) | 1 |
| CC[C@H](C)[C@@H]1NC(=O)[C@H](CCCNC(=N)N)NC(=O)[C@H](CC(=O)O)NC(=O)[C@H]([C@@H](C)CC)NC(=O)[C@H](CCCNC(=N)N)NC(=O)CNC(=O)CNC(=O)[C@H](Cc2ccccc2)NC(=O)[C@@H](N)CSSC[C@@H](C(=O)N2CCC[C@H]2C(=O)N[C@@H](CO)C(=O)N[C@@H](Cc2ccccc2)C(=O)N[C@@H](CCCNC(=N)N)C(N)=O)NC(=O)CNC(=O)[C@H](CC(C)C)NC(=O)CNC(=O)[C@H](CO)NC(=O)[C@H](CCC(N)=O)NC(=O)[C@H](C)NC(=O)CNC1=O [Structure 21] (H-CFGGRIDRIGAQSGLGCPSFR-NH2; disulfide 1-17) | 1.3 |
| CC[C@H](C)[C@@H]1NC(=O)[C@H](CCCNC(=N)N)NC(=O)[C@H](CC(=O)O)NC(=O)[C@H]([C@@H](C)CC)NC(=O)[C@H](CCCNC(=N)N)NC(=O)CNC(=O)CNC(=O)[C@H](Cc2ccccc2)NC(=O)[C@@H](N)CSSC[C@@H](C(=O)N[C@@H](CC(N)=O)C(=O)N2CCC[C@H]2C(=O)N[C@@H](Cc2ccccc2)C(=O)N[C@@H](CCCNC(=N)N)C(N)=O)NC(=O)CNC(=O)[C@H](CC(C)C)NC(=O)CNC(=O)[C@H](CO)NC(=O)[C@H](CCC(N)=O)NC(=O)[C@H](C)NC(=O)CNC1=O [Structure 22] (H-CFGGRIDRIGAQSGLGCNPFR-NH2; disulfide 1-17) | 0.24 |
